Measured values reported in the RNAGym collection of RNA variant scans (doi:10.1073/pnas.2313332121).
This sample is rich in variants without activity.

B1: TPR 5TU (parent)
chain: GGAUCUUCUCGAUCUAACAAAAAAGACAAAUCUGCCACAAAGCUUGAGAGCAUCUUCGGAUGCAGAGGCGGCAGCCUUCGGUGGCGCGAUAGCGCCAACGUUCUCAACUAUGACACGCAAAACGCGUGCUCCGUUGAAUGGAGUUUAUCAUG

Variants of: B1
Assay: polymerase ribozyme fitness, log enrichment relative to wild type (log ratio); higher = more active; in vitro selection for triplet polymerase activity
How it was run: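 Mutant libraries of both subunits of a heterodimeric triplet polymerase ribozyme were PCR-built, transcribed, and selected once in triplicate, with frozen incubation at −7 °C and capture of gel-excised extended constructs on streptavidin beads before RT-PCR. Illumina sequencing of input and output libraries was filtered to genotypes with ≥10 input reads and ≥1 read per output. Fitness is the logarithm of genotype enrichment over wild-type enrichment, using inverse-variance-weighted replicate averages. The logarithm is base 2.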

GGAUCUUCUCGAUCUAACAAAAAAGACAAAUCUGCCACAAAGCUUGAGAGCAUCUUCGGAUGCAGAGGCGGCAGCCUUCGGUGGCGCGAUAGCGCCAAGGUUCUCAACUAUGACACGCAACACGCGUGCUCCGUUGAAUGGAGUUUAUCAAG [C99G A121C U151A] and GGAUCUUCUCGAUCUAACAAAAAAGACAAAUCUGCCACAAAGCUUGAGAGCAUCUUCGGAUGCAGAGGCGGCAGCCUUCGGUGGCGCGAUAGCGCCAACAUUCUCAACUAUGACACGCGAAACACGUGCUCCGUUGAAUGGAGUUUAUCAUG [G100A A119G G124A] cannot be ordered by “polymerase ribozyme fitness (log ratio)” value: at most -4.2 for the first, at most -4.2 for the second.

First: GGAUCUUCUCGAUCUAACAAAAAAGACAAAUCUGCCACAAAGCUUGAGAGCAUCUUCGGAUGCAGAGGCGGCAGCCUUCGGUGGCGCGAUAGCGCCAACAUUCUCAACUAUGACACGCAAAACCCGUGCUCCGUUGAAUGGAGUUUAUCAUG [G100A G124C]
Second: GGAUCUUCUCGAUCUAACAAAAAAGACAAAUCUGCCACAAAGCUUGAGAGCAUCUUCGGAUGCAGAGGCGGCAGCCUUCGGUGGCGCGAUAGCGCCAACGUCCUCAACUAUGACACGCAAAACGCGUGCUCCGAUGAAUGGAGUUUAUCAUG [U102C U134A]
The “polymerase ribozyme fitness (log ratio)” value of the first is lower: at most -4.2 for the first, -3.46 for the second.

GGAUCUUCUCGAUCUAACAAAAAAGACAAAUCUGCCACAAAGCUUGAGAGCAUCUUCGGAUGCAGAGGCGGCAGCCUUCGGUGGCGCGAUAGCGCCAACGUCCUCUACUAUGACACGCAAAACGCGUGCUCCGUUGAAUGGAGUUUAUCAUG [U102C A106U] and GGAUCUUCUCGAUCUAACAAAAAAGACAAAUCUGCCACAAAGCUUGAGAGCAUCUUCGGAUGCAGAGGCGGCAGCCUUCGGUGGCGCGAUAGCGCCAACGUGCUCAACUAUGACACGCAAAACGCGUGCUCCGUUGAAUGGAGUUUAUCCUG [U102G A150C] cannot be ordered by “polymerase ribozyme fitness (log ratio)” value: at most -4.2 for the first, at most -4.2 for the second.

Going from GGAUCUUCUCGAUCUAACAAAAAAGACAAAUCUGCCACAAAGCUUGAGAGCAUCUUCGGAUGCAGAGGCGGCAGCCUUCGGUGGCGCGAUAGCGCCAACGUCCUCAACUAUGACACGCAAAACGCGUGCUCCGUUAAAUGGAGUUUAUCAUG [U102C G136A] to GGAUCUUCUCGAUCUAACAAAAAAGACAAAUCUGCCACAAAGCUUGAGAGCAUCUUCGGAUGCAGAGGCGGCAGCCUUCGGUGGCGCGAUAGCGCCAACGUGCUCAACUAUGACAAGCAAAACGCGUGCUCCGUUGAAUGGAGUUUAUCAUG [U102G C116A], the “polymerase ribozyme fitness (log ratio)” value falls from -0.705 to -2.07.

First: GGAUCUUCUCGAUCUAACAAAAAAGACAAAUCUGCCACAAAGCUUGAGAGCAUCUUCGGAUGCAGAGGCGGCAGCCUUCGGUGGCGCGAUAGCGCCAACGUUAUCAACUAUGACACGCAGAACGCGUGCUUCGUUGAUUGGAGUUUAUCAUG [C103A A120G C131U A138U]
Second: GGAUCUUCUCGAUCUAACAAAAAAGACAAAUCUGCCACAAAGCUUGAGAGCAUCUUCGGAUGCAGAGGCGGCAGCCUUCGGUGGCGCGAUAGCGCCAACGAUCUCAACUAUGACACGCAAAACGCGUGCUCCGUUGAAUGGACUUUAUCAUG [U101A G143C]
The “polymerase ribozyme fitness (log ratio)” value of the first is lower: -3.71 for the first, -2.08 for the second.

First: GGAUCUUCUCGAUCUAACAAAAAAGACAAAUCUGCCACAAAGCUUGAGAGCAUCUUCGGAUGCAGAGGCGGCAGCCUUCGGUGGCGCGAUAGCGCCAACGGUCUCAACUAUGACUCUCAAAACGCGUGCUCCGUUGAAUGGAGUUUAUCCUG [U101G A115U G117U A150C]
Second: GGAUCUUCUCGAUCUAACAAAAAAGACAAAUCUGCCACAAAGCUUGAGAGCAUCUUCGGAUGCAGAGGCGGCAGCCUUCGGUGGCGCGAUAGCGCCAACUGUCUCAACUAUGACACGCAAAACGCGUGCUCCGUUGAAUGGAGUUUAUCAUG [G100U U101G]
The “polymerase ribozyme fitness (log ratio)” value of the first is lower: at most -4.2 for the first, -3.34 for the second.

GGAUCUUCUCGAUCUAACAAAAAAGACAAAUCUGCCACAAAGCUUGAGAGCAUCUUCGGAUGCAGAGGCGGCAGCCUUCGGUGGCGCGAUAGCGCCAACCUUCUCAACUAUGACACGCAAAACGCGUGCUGCGUUGAAUGGAGUUUAUCAUG [G100C C131G] and GGAUCUUCUCGAUCUAACAAAAAAGACAAAUCUGCCACAAAGCUUGAGAGCAUCUUCGGAUGCAGAGGCGGCAGCCUUCGGUGGCGCGAUAGCGCCAACAUUCUCAACUAUGACACGCAAAACGCGUGGUCCGUUGAAUGGAGUUUAUCAUG [G100A C129G] cannot be ordered by “polymerase ribozyme fitness (log ratio)” value: at most -4.2 for the first, at most -4.2 for the second.

GGAUCUUCUCGAUCUAACAAAAAAGACAAAUCUGCCACAAAGCUUGAGAGCAUCUUCGGAUGCAGAGGCGGCAGCCUUCGGUGGCGCGAUAGCGCCAAUGUUCUCAACUAGGACACGCAAAACGCGUGCUCCGUUGAAUGGAGUUUAUCAUG [C99U U111G] and GGAUCUUCUCGAUCUAACAAAAAAGACAAAUCUGCCACAAAGCUUGAGAGCAUCUUCGGAUGCAGAGGCGGCAGCCUUCGGUGGCGCGAUAGCGCCAAAGUUCUCAAGUAUGACACGCAAAACGCGUGCUCCGUUGAAUGGAGUCUAUCAUG [C99A C108G U145C] cannot be ordered by “polymerase ribozyme fitness (log ratio)” value: at most -4.2 for the first, at most -4.2 for the second.

Going from GGAUCUUCUCGAUCUAACAAAAAAGACAAAUCUGCCACAAAGCUUGAGAGCAUCUUCGGAUGCAGAGGCGGCAGCCUUCGGUGGCGCGAUAGCGCCAAGGUUCUCAACUAUGAUACGCAAAACGCGUGCUCCGUUGAAUGGAGUUUAUCAUG [C99G C114U] to GGAUCUUCUCGAUCUAACAAAAAAGACAAAUCUGCCACAAAGCUUGAGAGCAUCUUCGGAUGCAGAGGCGGCAGCCUUCGGUGGCGCGAUAGCGCCAACGUGCUCAACUCUGACACGCAAAACGCGUGCUCCGUUGAAUGGAGUUUAUCAUG [U102G A110C], the “polymerase ribozyme fitness (log ratio)” value falls from -2.38 to at most -4.2.

For GGAUCUUCUCGAUCUAACAAAAAAGACAAAUCUGCCACAAAGCUUGAGAGCAUCUUCGGAUGCAGAGGCGGCAGCCUUCGGUGGCGCGAUAGCGCCAAGGUUCUCAACUAUGACACGCAAAAUGCGUGCUCCGUUGAAUGGACUGUAUCAUG [C99G C123U G143C U145G], the “polymerase ribozyme fitness (log ratio)” value was at most -4.2.
